# Data as given in the supplement of paper PMC8728848.
# Some of the results follow.
# B1: PNA (Arachis hypogaea), P02872 (protein)
# chain: MKPFCVFLTFFLLLAASSKKVDSAETVSFNFNSFSEGNPAINFQGDVTVLSNGNIQLTNLNKVNSVGRVLYAMPVRIWSSATGNVASFLTSFSFEMKDIKDYDPADGIIFFIAPEDTQIPAGSIGGGTLGVSDTKGAGHFVGVEFDTYSNSEYNDPPTDHVGIDVNSVDSVKTVPWNSVSGAVVKVTVIYDSSTKTLSVAVTNDNGDITTIAQVVDLKAKLPERVKFGFSASGSLGGRQIHLIRSWSFTSTLITTTRRSIDNNEKKIMNMASA
# Legend:
# Test in all cases: glycan array binding signal (z-score within array); higher = stronger binding
# Details in all cases: glycan notation: IUPAC condensed, linker removed
# [1] = molecular target: Gal(b1-3)GlcNAc(b1-3)Gal(b1-4)[Fuc(a1-3)]GlcNAc
# Procedure, shortened: (§1)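 Glycan array binding is given as a within-array Z-score, which can be read as non-binding when negative. The arrays, 3228 of them, came from the Consortium for Functional Glycomics database and were retained only where the protein sequence was available. Z-scores were averaged across arrays of the same protein sequence at different concentrations or buffers and across linkers.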
# [2] = molecular target: Gal(b1-3)GlcNAc(b1-3)Gal(b1-4)[Fuc(a1-3)]GlcNAc(b1-3)Gal(b1-4)Glc
# Procedure, shortened: as §1
# [3] = molecular target: Gal(b1-3)GlcNAc(b1-3)Gal(b1-4)[Fuc(a1-3)]GlcNAc(b1-6)[Gal(b1-3)GlcNAc(b1-3)]Gal(b1-4)Glc
# Procedure, shortened: as §1
# [4] = molecular target: Gal(b1-3)GlcNAc(b1-3)GalNAc
# Procedure, shortened: as §1
# [5] = molecular target: Gal(b1-3)GlcNAc(b1-3)[Fuc(a1-3)[Gal(b1-4)]GlcNAc(b1-6)]Gal(b1-4)Glc
# Procedure, shortened: as §1
# [6] = molecular target: Gal(b1-3)GlcNAc(b1-3)[Fuc(a1-3)[Gal(b1-4)]GlcNAc(b1-6)]Gal(b1-4)]GlcNAc(b1-6)[Gal(b1-4)]GlcNAc(b1-3)]Gal(b1-4)Glc
# Procedure, shortened: as §1
# [7] = molecular target: Gal(b1-3)GlcNAc(b1-3)[Gal(b1-4)GlcNAc(b1-6)]Gal(b1-4)Glc
# Procedure, shortened: as §1
# [8] = molecular target: Gal(b1-3)GlcNAc(b1-3)[Gal(b1-4)GlcNAc(b1-6)]Gal(b1-4)GlcNAc(b1-6)[Gal(b1-3)GlcNAc(b1-3)]Gal(b1-4)Glc
# Procedure, shortened: as §1
# [9] = molecular target: Gal(b1-3)GlcNAc(b1-6)Gal(b1-4)GlcNAc
# Procedure, shortened: as §1
# [10] = molecular target: Gal(b1-3)GlcNAc(b1-6)GalNAc
# Procedure, shortened: as §1
# [11] = molecular target: Gal(b1-3)GlcNAc(b1-6)[Gal(b1-3)]GalNAc
# Procedure, shortened: as §1
# [12] = molecular target: Gal(b1-3)GlcNAc6S
# Procedure, shortened: as §1
# [13] = molecular target: Gal(b1-3)[Fuc(a1-4)]GlcNAc
# Procedure, shortened: as §1
# [14] = molecular target: Gal(b1-3)[Fuc(a1-4)]GlcNAc(b1-2)Man
# Procedure, shortened: as §1
# [15] = molecular target: Gal(b1-3)[Fuc(a1-4)]GlcNAc(b1-2)Man(a1-3)[Gal(b1-3)[Fuc(a1-4)]GlcNAc(b1-2)Man(a1-6)]Man(b1-4)GlcNAc(b1-4)GlcNAc
# Procedure, shortened: as §1
# [16] = molecular target: Gal(b1-3)[Fuc(a1-4)]GlcNAc(b1-2)Man(a1-3)[Gal(b1-3)[Fuc(a1-4)]GlcNAc(b1-2)Man(a1-6)]Man(b1-4)GlcNAc(b1-4)[Fuc(a1-6)]GlcNAc
# Procedure, shortened: as §1
# [17] = molecular target: Gal(b1-3)[Fuc(a1-4)]GlcNAc(b1-3)Gal(b1-3)[Fuc(a1-4)]GlcNAc
# Procedure, shortened: as §1
# [18] = molecular target: Gal(b1-3)[Fuc(a1-4)]GlcNAc(b1-3)Gal(b1-4)Glc
# Procedure, shortened: as §1
# [19] = molecular target: Gal(b1-3)[Fuc(a1-4)]GlcNAc(b1-3)Gal(b1-4)GlcNAc
# Procedure, shortened: as §1
# [20] = molecular target: Gal(b1-3)[Fuc(a1-4)]GlcNAc(b1-3)Gal(b1-4)[Fuc(a1-3)]Glc
# Procedure, shortened: as §1
# [21] = molecular target: Gal(b1-3)[Fuc(a1-4)]GlcNAc(b1-3)Gal(b1-4)[Fuc(a1-3)]GlcNAc
# Procedure, shortened: as §1
# [22] = molecular target: Gal(b1-3)[Fuc(a1-4)]GlcNAc(b1-3)Gal(b1-4)[Fuc(a1-3)]GlcNAc(b1-3)Gal(b1-4)Glc
# Procedure, shortened: as §1
# [23] = molecular target: Gal(b1-3)[Fuc(a1-4)]GlcNAc(b1-3)Gal(b1-4)[Fuc(a1-3)]GlcNAc(b1-6)[Gal(b1-3)[Fuc(a1-4)]GlcNAc(b1-3)]Gal(b1-4)Glc
# Procedure, shortened: as §1
# [24] = molecular target: Gal(b1-3)[Fuc(a1-4)]GlcNAc(b1-3)[Fuc(a1-3)[Gal(b1-4)]GlcNAc(b1-6)]Gal(b1-4)Glc
# Procedure, shortened: as §1
# [25] = molecular target: Gal(b1-3)[Fuc(a1-4)]GlcNAc(b1-6)GalNAc
# Procedure, shortened: as §1
# [26] = molecular target: Gal(b1-3)[GlcNAc(b1-6)]GalNAc
# Procedure, shortened: as §1
# [27] = molecular target: Gal(b1-3)[Neu5Ac(a2-6)]GalNAc
# Procedure, shortened: as §1
# [28] = molecular target: Gal(b1-3)[Neu5Ac(a2-6)]GlcNAc(b1-3)Gal(b1-4)Glc
# Procedure, shortened: as §1
# [29] = molecular target: Gal(b1-3)[Neu5Ac(a2-6)]GlcNAc(b1-4)Gal(b1-4)Glc
# Procedure, shortened: as §1
# [30] = molecular target: Gal(b1-3)[Neu5Ac(a2-6)]GlcNAc(b1-6)Gal(b1-4)Glc
# Procedure, shortened: as §1
# [31] = molecular target: Gal(b1-3)[Neu5Ac(b2-6)]GalNAc
# Procedure, shortened: as §1
# [32] = molecular target: Gal(b1-4)Gal
# Procedure, shortened: as §1
# [33] = molecular target: Gal(b1-4)GalNAc(a1-3)[Fuc(a1-2)]Gal(b1-4)GlcNAc
# Procedure, shortened: as §1
# [34] = molecular target: Gal(b1-4)GalNAc(b1-3)[Fuc(a1-2)]Gal(b1-4)GlcNAc
# Procedure, shortened: as §1
# [35] = molecular target: Gal(b1-4)Glc
# Procedure, shortened: as §1
# [36] = molecular target: Gal(b1-4)Glc6S
# Procedure, shortened: as §1
# [37] = molecular target: Gal(b1-4)GlcNAc
# Procedure, shortened: as §1
# [38] = molecular target: Gal(b1-4)GlcNAc(a1-6)Gal(b1-4)GlcNAc
# Procedure, shortened: as §1
binder,measurement,setting,value
B1,glycan array binding signal (z-score),[1],-0.223
same,glycan array binding signal (z-score),[2],0.747
same,glycan array binding signal (z-score),[3],1.06
same,glycan array binding signal (z-score),[4],-0.159
same,glycan array binding signal (z-score),[5],0.336
same,glycan array binding signal (z-score),[6],1.47
same,glycan array binding signal (z-score),[7],0.359
same,glycan array binding signal (z-score),[8],0.601
same,glycan array binding signal (z-score),[9],-0.25
same,glycan array binding signal (z-score),[10],-0.472
same,glycan array binding signal (z-score),[11],1.57
same,glycan array binding signal (z-score),[12],-0.297
same,glycan array binding signal (z-score),[13],-0.147
same,glycan array binding signal (z-score),[14],-0.096
same,glycan array binding signal (z-score),[15],-0.037
same,glycan array binding signal (z-score),[16],-0.059
same,glycan array binding signal (z-score),[17],-0.193
same,glycan array binding signal (z-score),[18],-0.195
same,glycan array binding signal (z-score),[19],-0.149
same,glycan array binding signal (z-score),[20],-0.195
same,glycan array binding signal (z-score),[21],-0.198
same,glycan array binding signal (z-score),[22],-0.195
same,glycan array binding signal (z-score),[23],-0.195
same,glycan array binding signal (z-score),[24],-0.195
same,glycan array binding signal (z-score),[25],-0.599
same,glycan array binding signal (z-score),[26],3.79
same,glycan array binding signal (z-score),[27],0.717
same,glycan array binding signal (z-score),[28],0.047
same,glycan array binding signal (z-score),[29],-0.232
same,glycan array binding signal (z-score),[30],-0.197
same,glycan array binding signal (z-score),[31],1.61
same,glycan array binding signal (z-score),[32],-0.213
same,glycan array binding signal (z-score),[33],-0.054
same,glycan array binding signal (z-score),[34],-0.104
same,glycan array binding signal (z-score),[35],-0.074
same,glycan array binding signal (z-score),[36],-0.154
same,glycan array binding signal (z-score),[37],-0.17
same,glycan array binding signal (z-score),[38],-0.152
